# According to PubChem BioAssay AID463173 (ICCB-Longwood Screening Facility, Harvard Medical School, 2010):
# The campaign covered roughly 52,000 compounds. About 4,300 (8.3%) were called active. No stated cut-off is given here; in the data, active means survival mostly below about 52% (no sharp cut-off); inactive means mostly above about 56%. The list shows a part of the results.
# Tested on: DeltatarO mutant
# Assay: S. aureus survival, RN4220 and DeltatarO strains – OD600, teichoic acid synthesis inhibitors, primary screen (AID 463173)
# Conditions: S. aureus RN4220 wild type/DeltatarO growth, OD600, 18 h, stronger effect = lower value, screened at 18.75 µg/mL (by protocol)
row,SMILES,survival
1,CCOC(=O)c1cc2c(=O)n3ccccc3nc2n(CC(C)C)c1=NC(=O)c1c(-c2c(F)cccc2Cl)noc1C,inactive: 165%
2,CCCN(C(=O)c1noc2c1COc1ccc(C)cc1-2)c1ccc(Cl)c(Cl)c1,inactive: 105%
3,COC(=O)c1ccccc1NC(=O)c1c(NC(=O)c2ccco2)sc2c1CCC(C(C)(C)C)C2 (configuration not stated),inactive: 137%
4,CN(C(=O)CSc1cn(CC(=O)N2CCOCC2)c2ccccc12)c1ccccc1,inactive: 80%
5,CCCCN(CC)CCNC(=O)Cn1cc2c(n1)-c1c(oc(C(=O)N3CCCC3)c1C)CC2,inactive: 85%
6,COc1cccc(Cn2c(=O)n(Cc3ccco3)c(=O)c3oc4ccccc4c32)c1,inactive: 66%
7,CC(=O)N1CCCc2cc(S(=O)(=O)N3CCC(C(=O)NCc4cccc(C)c4)CC3)ccc21,inactive: 75%
8,CCCOc1cccc(C(=O)N(Cc2ccc(C)o2)C2CCS(=O)(=O)C2)c1 (configuration not stated),inactive: 90%
9,CCN(C(=O)CCn1cnc2onc(-c3ccc(F)cc3)c2c1=O)c1ccc(OC)cc1,inactive: 73%
10,CCOc1ccc(C(=O)Nc2ccc(S(=O)(=O)N3CCOCC3)cc2)cc1OCC,inactive: 72%
11,CCc1cccc(-n2nnc(-c3nc(-c4ccccc4Cl)no3)c2N)c1,inactive: 91%
12,CCN(CC)C(=O)c1sc2c(c1C)c(=O)n(Cc1ccccc1)c(=O)n2Cc1ccc(Cl)cc1,inactive: 80%
13,O=C(CCS(=O)(=O)c1nc(-c2ccc3c(c2)OCO3)cc(C(F)(F)F)n1)Nc1ccccc1F,inactive: 88%
14,COCCNC(=O)c1cc2nc3c(c(C(F)(F)F)n2n1)CCc1ccccc1-3,inactive: 86%
15,NS(=O)(=O)c1cccc(S(N)(=O)=O)c1,inactive: 75%
16,O=c1oc2ccccc2c(O)c1CN1CCCCC1,active: 25%
17,CC(C)c1ccc(NC(=O)c2cccc3c2C(=O)N(C2CCCCC2)C3)cc1,active: -10%
18,CCCc1nc2ccccc2n2c(-c3ccc(C)cc3)c3c(=O)n(C)c(=O)n(C)c3c12,inactive: 68%
19,Cc1ccc2c(c1)N(CC(=O)NCc1ccccc1Br)C(=O)c1cccnc1O2,inactive: 81%

row,SMILES,survival
1,CCOCCCNC(=O)C(c1ccc(C)cc1)N(Cc1cccs1)C(=O)c1ccc(NC(C)=O)cc1 (configuration not stated),inactive: 179%
2,CCCc1cc(NCc2cccnc2)n2c(nc3ccccc32)c1C#N,inactive: 107%
3,CC(=O)c1cccc(NC(=O)c2c(N3CCCC3=O)c3cc(F)ccc3n2C)c1,inactive: 95%
4,COc1ccccc1NC(=O)c1c(NC(=O)c2ccco2)sc2c1CCC(C(C)(C)C)C2 (configuration not stated),inactive: 75%
5,CCSc1ncc(Cl)c(C(=O)Nc2c(C(=O)c3ccc(C)c(F)c3)oc3ccccc23)n1,inactive: 108%
6,Cc1cccc(N2CCN(C(=O)c3cnn(-c4cccc(Cl)c4C)c3C3CCNCC3)CC2)c1C,inactive: 80%
7,COc1ccc2nc3sc(C(=O)N4CCCC4)c(N)c3cc2c1,inactive: 68%
8,Cc1cc(C)c(NC(=O)Cn2c(=O)n(Cc3ccco3)c(=O)c3ccc(C(=O)NC4CCCC4)cc32)c(C)c1,inactive: 123%
9,Fc1ccc(-c2cn3ccccc3n2)cc1,inactive: 74%
10,O=C(NCC(c1cccnc1)N1CCc2ccccc2C1)C(=O)Nc1ccc(Cl)cc1 (configuration not stated),inactive: 51%
11,Cc1ccc(-c2noc(CSc3nnc(Cc4ccccc4)n3-c3cccc(C)c3)n2)cc1,inactive: 58%
12,Cn1nnc2c(NCCc3ccccc3)ncnc21,inactive: 89%
13,CN(C(=O)C1=CC(c2ccc3c(c2)OCO3)=NS(=O)(=O)N1C)c1ccccc1,inactive: 91%
14,CCc1cccc(NS(=O)(=O)c2c(C)nc3sc(CC)nn3c2=O)c1,inactive: 75%
15,COc1ccc(N2CC(NC(=O)c3cc4ccccc4o3)CC2=O)cc1OC (configuration not stated),inactive: 101%
16,CCC(=O)NC(c1ccccc1OC)c1cc(Cl)c2cccnc2c1O (configuration not stated),inactive: 68%
17,Cc1ccc(NC(=O)Cn2c(=O)n(CCc3ccccc3)c(=O)c3c4c(sc32)CCCC4)c(C)c1,inactive: 92%
18,CCNC(=S)NC1CC2CCC1C2 (configuration not stated),inactive: 102%
19,CCOC(=O)c1cc(NC(=O)c2ccc(C)cc2)c(=O)n2c1oc1ccc(Cl)cc12,inactive: 55%

row,SMILES,survival
1,COc1ccc(C/C(N)=N/OC(=O)Cc2ccccc2)cc1,inactive: 78%
2,O=c1oc2ccc(Br)cc2cc1-c1csc(-c2ccccc2)n1,inactive: 101%
3,COC(=O)c1ccc(NC(=O)c2cc(=O)c3ccc(C)cc3o2)cc1,inactive: 96%
4,Cc1ccc(N2CC(NC(=O)c3ccc(S(=O)(=O)N4CCCCC4)cc3)CC2=O)cc1 (configuration not stated),inactive: 81%
5,CCOc1ccc(Oc2nc(NC)nc(N3CCOCC3)n2)nn1,inactive: 99%
6,CCOC(=O)c1noc2ncnc(N3CCC(C)CC3)c12,inactive: 75%
7,COc1cc2nc(C3CCC3)n(NC(=O)C(OC(C)=O)c3ccccc3)c(=O)c2cc1OC (configuration not stated),inactive: 94%
8,CC(C)N(C(=O)Cn1c(SCC(=O)N2CCOCC2)nc2ccccc21)C(C)C,inactive: 98%
9,COc1ccc(S(=O)(=O)N(Cc2ccccc2)Cc2nc3ccccc3c(=O)[nH]2)cc1,inactive: 90%
10,COc1ccc(CC(=O)NCc2nc3cccnc3n2Cc2ccc(C)cc2)cc1OC,inactive: 89%
11,Cc1cccc(Cn2cc3c(=O)n(CC(=O)Nc4ccc(C)c(F)c4)nc-3c3cc(F)ccc32)c1,inactive: 76%
12,CCCC(=O)Nc1nnc2n1CCS2,inactive: 76%
13,Cc1nc2c(c(C)nn2-c2ccccc2)c(C)c1CCC(=O)NCCc1ccccc1,inactive: 58%
14,Cn1nnc2c(NCc3ccccc3Cl)ncnc21,inactive: 112%
15,CCCCCn1c(=O)[nH]c2cc(C(=O)N3CCN(c4cccc(C)c4)C(C)C3)ccc2c1=O (configuration not stated),inactive: 50%
16,CCOC(=O)/C(C#N)=N\Nc1cc(C)cc(C)c1,inactive: 103%
17,Cc1cccc(Oc2nc3c(c(=O)n(C)c(=O)n3C)n2C)c1,inactive: 123%
18,O=C(NCC12CC3CC(CC(C3)C1)C2)c1cc2nc(-c3ccccc3)cc(C(F)(F)F)n2n1,active: -4%
19,COc1ccc(N2CCN(C(=O)c3cc4ccc5cccnc5c4[nH]3)CC2)cc1,inactive: 74%
